The other results are listed elsewhere or left out. Cut-off read from the data, not from the text of the source: active = 3.2 or more and inactive = the rest. The signal is at background level for most entries.

Among the data in the supplement of paper PMC10369915 are enrichment score values, retold here.

B1: PKP2_Y631_Y631C_YF (peptide)
chain: FSQNICIQNRN
B2: PLA2G2D_Y85_YF (peptide)
chain: SIFKDYFRFNF
B3: PLD2_Y578_T577I_YF (peptide)
chain: FKTPIYPFLLP
B4: PLA2G2D_Y126 (peptide)
chain: RNLDTYQKRLR
B5: PLD2_Y169_YF (peptide)
chain: KFLENYLNRLL
B6: PLP1_Y207_L210H (peptide)
chain: ADARMYGVHPW
B7: PKP2_Y631_YF (peptide)
chain: FSQNIYIQNRN
B8: PLEC_Y2971_R2969H_YF (peptide)
chain: AFRHGYFDEEM
B9: PLP1_Y207_D203V (peptide)
chain: AVARMYGVLPW
B10: PLA2G6_Y541_YF (peptide)
chain: FMRGMYFRMKD
B11: PLD2_Y578_T577I (peptide)
chain: YKTPIYPYLLP
B12: PLEC_Y2971_R2969H (peptide)
chain: AYRHGYFDEEM
B13: PLD2_Y580_T577I_YF (peptide)
chain: TPIFPYLLPKS
B14: PLOD1_Y675_G678R (peptide)
chain: RVGVDYEGRGC
B15: PLK3_Y615 (peptide)
chain: RSACTYLASHL
B16: PLCG1_Y210_T209N (peptide)
chain: SGDINYGQFAQ
B17: PLD2_Y573_YF (peptide)
chain: TTKAKYKTPTF
B18: PLEKHG2_Y489_P484L (peptide)
chain: LVKDPYVMFPQ
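Note: displayed peptides selected on beads carrying the immobilized SH2 domain, with library peptides lacking any tyrosine serving as negative controls.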

The first test has as its target SHP2 C-SH2 domain E139D. As to the kind of experiment: enrichment score (SH2-bound / input frequency) (ratio); bacterial display of known human phosphotyrosine sites (pTyr-Var adds point mutants) read by sequencing; higher = stronger binding; tyrosines were phosphorylated by kinases first. Particulars: peptide library: pTyr-Var.
Regarding B1, the enrichment score is inactive: 0.933.

As to B2, the enrichment score was inactive: 2.99.

In the case of B3, the enrichment score was inactive: 1.22.

B4: the enrichment score was inactive: 0.743.

With B5, the enrichment score was active: 4.22.

With B6, the enrichment score is inactive: 0.927.

For B7, the enrichment score was inactive: 1.72.

In the case of B8, the enrichment score was inactive: 1.07.

In the case of B9, the enrichment score was inactive: 0.924.

Turning to B10, the enrichment score was inactive: 0.885.

As to B11, the enrichment score is inactive: 1.34.

As for B12, the enrichment score is inactive: 1.02.

As for B13, the enrichment score was inactive: 1.45.

As for B14, the enrichment score is inactive: 0.512.

In the case of B15, the enrichment score is inactive: 1.24.

For B16, the enrichment score is inactive: 0.645.

For the molecule B17, the enrichment score is inactive: 0.664.

Turning to B18, the enrichment score is inactive: 1.04.

The target in another test is SHP2 C-SH2 domain wild-type. Described as above. Particulars: peptide library: pTyr-Var.
Regarding B1, the enrichment score is inactive: 0.643.

In the case of B2, the enrichment score is inactive: 2.25.

B3: the enrichment score was inactive: 1.43.

Take B4: the enrichment score was inactive: 0.344.

Regarding B5, the enrichment score was active: 3.8.

As to B6, the enrichment score was inactive: 0.821.

For B7, the enrichment score is inactive: 1.75.

On to B8, for which the enrichment score is inactive: 0.726.

For B9, the enrichment score was inactive: 0.745.

For the molecule B10, the enrichment score is inactive: 0.626.

In the case of B11, the enrichment score was inactive: 1.3.

Consider B12, for which the enrichment score was inactive: 0.726.

B13: the enrichment score was inactive: 0.882.

For B14, the enrichment score was inactive: 0.612.

For the molecule B15, the enrichment score was inactive: 0.951.

On to B16, for which the enrichment score is inactive: 0.718.

As for B17, the enrichment score was inactive: 0.707.

In the case of B18, the enrichment score is inactive: 1.24.

In another test the target is SHP2 N-SH2 domain L43F. The test is described as above. Particulars: peptide library: pTyr-Var.
Turning to B1, the enrichment score was inactive: 0.788.

With B2, the enrichment score is inactive: 2.68.

Regarding B3, the enrichment score was inactive: 1.61.

Take B4: the enrichment score was inactive: 0.57.

As for B5, the enrichment score was active: 4.08.

B6: the enrichment score was inactive: 0.707.

Take B7: the enrichment score is inactive: 1.44.

As for B8, the enrichment score is inactive: 1.05.

Regarding B9, the enrichment score is inactive: 0.534.

As for B10, the enrichment score was inactive: 0.69.

Take B11: the enrichment score is inactive: 1.29.

For B12, the enrichment score was inactive: 0.801.

For B13, the enrichment score is inactive: 0.623.

B14: the enrichment score was inactive: 0.621.

Turning to B15, the enrichment score was inactive: 1.13.

As for B16, the enrichment score is inactive: 0.544.

As to B17, the enrichment score was inactive: 0.718.

As for B18, the enrichment score is inactive: 1.63.

For a further test, the target named is SHP2 N-SH2 domain T42A. The test is described as above. Particulars: peptide library: pTyr-Var.
Take B1: the enrichment score is inactive: 0.779.

Consider B2, for which the enrichment score was inactive: 2.41.

Take B3: the enrichment score is inactive: 1.62.

As for B4, the enrichment score is inactive: 0.854.

Regarding B5, the enrichment score was active: 3.65.

Turning to B6, the enrichment score is inactive: 0.633.

Turning to B7, the enrichment score was inactive: 1.5.

Consider B8, for which the enrichment score was inactive: 0.662.

With B9, the enrichment score is inactive: 0.638.

With B10, the enrichment score was inactive: 0.66.

With B11, the enrichment score is inactive: 1.01.

With B12, the enrichment score was inactive: 0.648.

For the molecule B13, the enrichment score is inactive: 1.3.

Regarding B14, the enrichment score was inactive: 0.433.

Regarding B15, the enrichment score was inactive: 0.868.

In the case of B16, the enrichment score is inactive: 0.469.

Consider B17, for which the enrichment score is inactive: 0.744.

For the molecule B18, the enrichment score is inactive: 1.03.

The target in the next test is SHP2 N-SH2 domain T52S. Described as above. Particulars: peptide library: pTyr-Var.
Take B1: the enrichment score was inactive: 0.672.

In the case of B2, the enrichment score was inactive: 2.63.

As to B3, the enrichment score is inactive: 1.47.

For B4, the enrichment score was inactive: 0.954.

As to B5, the enrichment score is active: 3.96.

Take B6: the enrichment score is inactive: 0.803.

For the molecule B7, the enrichment score was inactive: 1.84.

Regarding B8, the enrichment score was inactive: 0.827.

As to B9, the enrichment score is inactive: 0.606.

Consider B10, for which the enrichment score was inactive: 0.864.

On to B11, for which the enrichment score was inactive: 1.1.

Consider B12, for which the enrichment score is inactive: 0.614.

Regarding B13, the enrichment score was inactive: 1.35.

For the molecule B14, the enrichment score is inactive: 0.581.

B15: the enrichment score is inactive: 0.922.

With B16, the enrichment score is inactive: 0.573.

On to B17, for which the enrichment score is inactive: 0.87.

With B18, the enrichment score is inactive: 1.4.

The target in the next test is SHP2 N-SH2 domain wild-type. The test is described as above. Particulars: peptide library: pTyr-Var.
For B1, the enrichment score is inactive: 0.919.

For B2, the enrichment score is inactive: 2.77.

Turning to B3, the enrichment score is inactive: 1.48.

With B4, the enrichment score was inactive: 0.57.

Consider B5, for which the enrichment score was active: 3.69.

Regarding B6, the enrichment score was inactive: 1.12.

With B7, the enrichment score is inactive: 1.93.

Consider B8, for which the enrichment score is inactive: 1.02.

On to B9, for which the enrichment score is inactive: 0.874.

Turning to B10, the enrichment score is inactive: 0.731.

Regarding B11, the enrichment score was inactive: 1.23.

On to B12, for which the enrichment score is inactive: 0.694.

For B13, the enrichment score is inactive: 1.

For B14, the enrichment score was inactive: 0.52.

In the case of B15, the enrichment score is inactive: 1.55.

Take B16: the enrichment score is inactive: 0.748.

On to B17, for which the enrichment score was inactive: 1.18.

For the molecule B18, the enrichment score is inactive: 1.29.
